Results reported in the supplement of paper PMC10369915.
The other results are listed elsewhere or left out. Cut-off read from the data, not from the text of the source: active = 3.2 or more and inactive = the rest. The signal is at background level for most entries.

What was measured:
Assay in all cases: enrichment score (SH2-bound / input frequency) (ratio); bacterial display of known human phosphotyrosine sites (pTyr-Var adds point mutants) read by sequencing; higher = stronger binding; tyrosines were phosphorylated by kinases first
Settings in all cases: peptide library: pTyr-Var
[1] = biological target: SHP2 C-SH2 domain E139D
[2] = biological target: SHP2 C-SH2 domain wild-type
[3] = biological target: SHP2 N-SH2 domain L43F
[4] = biological target: SHP2 N-SH2 domain T42A
[5] = biological target: SHP2 N-SH2 domain T52S
[6] = biological target: SHP2 N-SH2 domain wild-type

Measured: enrichment score
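Note: displayed peptides selected on beads carrying the immobilized SH2 domain, with library peptides lacking any tyrosine serving as negative controls.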

B1: TEKT5_Y195 (peptide)
chain: ALECLYHREKR
inactive: [1] 0.739 | [2] 0.845 | [3] 0.517 | [4] 0.592 | [5] 0.596 | [6] 1.33

B2: TEK_Y897_Y897F_YF (peptide)
chain: CEHRGFLFLAI
inactive: [1] 1.36 | [2] 1.28 | [3] 1.08 | [4] 1.21 | [5] 1.18 | [6] 1.02

B3: TEK_Y899_Y897H (peptide)
chain: HRGHLYLAIEY
inactive: [1] 1.4 | [2] 0.729 | [3] 0.465 | [4] 1.06 | [5] 1.53 | [6] 1.96

B4: TEKT4_Y210_D213N (peptide)
chain: DKMEAYNINET
inactive: [1] 0.426 | [2] 0.45 | [3] 0.617 | [4] 0.555 | [5] 0.484 | [6] 0.572

B5: TEX45_Y396_Y396N (peptide)
chain: HLQQSNLPRGT
inactive: [1] 0.855 | [2] 1.21 | [3] 0.684 | [4] 0.725 | [5] 0.825 | [6] 0.81

B6: TEK_Y897_Y897F (peptide)
chain: CEHRGFLYLAI
inactive: [1] 0.714 | [2] 1.01 | [3] 0.911 | [4] 0.935 | [5] 1.06 | [6] 0.915

B7: TEK_Y899_Y897S_YF (peptide)
chain: HRGSLYLAIEF
inactive: [1] 0.968 | [2] 1.54 | [3] 1.38 | [4] 0.797 | [5] 0.91 | [6] 1.6

B8: TEK_Y1108_YF (peptide)
chain: VNTTLYEKFTF
inactive: [1] 1.03 | [2] 0.973 | [3] 1.17 | [4] 1.21 | [5] 1.1 | [6] 0.817

B9: TEK_Y897_Y897S_YF (peptide)
chain: CEHRGSLFLAI
inactive: [1] 0.934 | [2] 1.09 | [3] 0.904 | [4] 0.865 | [5] 1.51 | [6] 1.25

B10: TENM4_Y1530_K1535Q (peptide)
chain: SGDDGYAKDAQ
inactive: [1] 0.485 | [2] 0.33 | [3] 0.451 | [4] 0.358 | [5] 0.355 | [6] 0.414

B11: TERT_Y949_S948R (peptide)
chain: SDYSRYARTSI
inactive: [1] 0.742 | [2] 0.554 | [3] 0.616 | [4] 0.484 | [5] 0.549 | [6] 0.651

B12: TEK_Y899_Y897F (peptide)
chain: HRGFLYLAIEY
inactive: [1] 0.718 | [2] 0.736 | [3] 0.669 | [4] 0.672 | [5] 0.454 | [6] 0.895

B13: TEKT5_Y195_H196R (peptide)
chain: ALECLYRREKR
inactive: [1] 0.246 | [2] 0.228 | [3] 0.224 | [4] 0.181 | [5] 0.177 | [6] 0.371

B14: TEK_Y899_Y897S (peptide)
chain: HRGSLYLAIEY
inactive: [1] 0.518 | [2] 0.933 | [3] 0.951 | [4] 0.442 | [5] 0.601 | [6] 1.02

B15: TEK_Y897_Y897H_YF (peptide)
chain: CEHRGHLFLAI
inactive: [1] 1.27 | [2] 1.14 | [3] 1.12 | [4] 1.18 | [5] 1.07 | [6] 1.25

B16: TEK_Y899_Y897H_YF (peptide)
chain: HRGHLYLAIEF
inactive: [1] 0.422 | [2] 1.02 | [3] 0.622 | [4] 0.423 | [5] 0.58 | [6] 1.31

B17: TEKT1_Y118_R119M (peptide)
chain: ETCLAYMEKRI
inactive: [1] 0.875 | [2] 1.18 | [3] 0.851 | [4] 1.16 | [5] 0.961 | [6] 1.25

B18: TERT_Y949_S948R_YF (peptide)
chain: SDFSRYARTSI
inactive: [1] 0.614 | [2] 0.448 | [3] 0.446 | [4] 0.503 | [5] 0.464 | [6] 0.528

B19: TEX37_Y25_D24N_YF (peptide)
chain: SHMVNYQPFRK
inactive: [1] 0.797 | [2] 0.672 | [3] 0.81 | [4] 0.692 | [5] 0.722 | [6] 0.698
